Reference: PubChem BioAssay AID1671193 (National Center for Advancing Translational Sciences (NCATS), 2021)
Values joined by “and” are separate entries in the source; they are usually repeats but may differ in a detail not shown here. Equal entries are not always repeated. In all, about 150,000 compounds went through this assay and about 180 (0.12%) were called active. The inconclusive results got no clear call from the source; some entries with a clear call stand among them for comparison. Calls come from the whole dose curve; as a rule, active = well fitted cell-killing curve with a large enough effect; inconclusive = small, poorly fitted or top-dose-only effect, or effect the other way; inactive = flat fitted curve, though single readings scatter. Where the call is inconclusive, the potency comes from a doubtful curve fit.

assay: GF-AFC viability counterscreen for inhibitors of alpha-synuclein gene (SNCA) expression; conditions: HEK-293-SNCA-luc viability, GF-AFC fluorescence, 24 h; activity change, negative = cytotoxicity: at 57.1 µM (top of the series) unless noted; note: nearly all actives have a fitted effect of over 30% in size;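 for activity change, negative = cytotoxicity: 0% = DMSO-treated cells and -100% = medium-only wells without cells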
In short: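 HEK-293-SNCA-luc cells (1500/well) plated 24 h, then exposed 24 h to a dilution series; GF-AFC added 30 min at 37C, fluorescence 405/540 nm; normalised to medium-only and DMSO wells, Hill fit.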
Potency is the fitted concentration of half-maximal effect; tags give direction and shape of the fitted curve.

Row | SMILES | Potency | activity change, negative = cytotoxicity
1 | CCN(C(=O)Cn1cnc2onc(-c3ccc(F)cc3)c2c1=O)c1ccc(OC)cc1 | inconclusive: 2.24 µM [cytotoxic, full curve] | –
2 | COc1ccc(CC2CN(C(=O)c3cccnc3SC)CCO2)cc1 (stereo not given) | – | inactive: 6.4%
3 | COc1ccc2c(c1)c(CN1CCc3nn(C)c(=O)n3CC1)cn2C | inconclusive: 5.01 µM [cytotoxic, full curve, poor fit] | –
4 | CCCOc1ccc(C2CC(=O)Nc3c2c(C)nn3-c2nncc(-c3cccc(OC)c3)n2)cc1OC (stereo not given) | – | inconclusive: 36%
5 | O=C(Cn1c(SCCOc2ccc(Cl)cc2)nc2ccccc21)N1CCCCC1 | inconclusive: 11.2 µM [cytotoxic, partial curve, poor fit] | –
6 | Cc1cccc(N2C(=O)CSC23C(=O)N(CC(=O)NCc2ccccc2Cl)c2ccccc23)c1 (stereo not given) | inconclusive: 31.6 µM [cytotoxic, single point] | –
7 | COCCn1c(=O)c(-c2ccc(Cl)cc2)nc2cnc(N(C)C)nc21 | inconclusive: 3.98 µM [rising, single point] | –
8 | COc1ccc(-c2cc(N3CCC(NC(=O)c4cccc(Br)c4)C3)n[nH]2)cc1 (stereo not given) | inconclusive: 25.1 µM [cytotoxic, single point] | –
9 | CC(C)C(=O)NC1CCN(C(=O)c2ccc(-c3cccs3)cc2)CC1 | – | inactive: -5.86% [at 12.5 µM]
10 | CCOC(=O)c1c(Oc2ccc(C(C)=O)cc2)nnc(-c2ccccc2)c1-c1ccccc1 | inconclusive: 17.8 µM [cytotoxic, single point] | –
11 | NS(=O)(=O)C#Cc1ccccc1 | inconclusive: 39.8 µM [cytotoxic, single point] | –
12 | CCC(C)NC(=O)Cc1csc2nc(C)c(-c3cc(C)n(-c4cc(Cl)ccc4C)n3)c(=O)n12 (stereo not given) | inconclusive: 8.91 µM [cytotoxic, single point] | –
13 | Cc1cc(Nc2nc(N[C@@H](C)c3ncc(F)cn3)ncc2Cl)n[nH]1 | inactive and inconclusive: 34.1 µM [cytotoxic, partial curve, poor fit] | –
14 | COc1cc([C@@H](CC(=O)O)c2ccc(C)c(CN3C[C@@H](C)Oc4ccccc4S3(=O)=O)c2)cc2nnn(C)c12 | inconclusive: 21.5 µM [cytotoxic, partial curve, poor fit] | –
15 | Cc1cc(C)n(CC(=O)N2CCc3nn(C)c(=O)n3CC2)n1 | inconclusive: 39.8 µM [cytotoxic, single point] | –
16 | Cn1ccnc1CN1CCOc2cc([S+](=O)([O-])Nc3ccccc3)ccc2C1 | – | inactive: -0.641% [at 87.6 µM]
17 | Cn1cc2c3c(cccc31)CN(C(=O)Cc1ccccc1F)CC2 | inconclusive: 39.8 µM [cytotoxic, single point] | –
18 | COc1ccc(C(=O)N[C@@H]2CCC[C@@H]2C(=O)NCc2cccc(OC)c2OC)cc1 | inconclusive: 31.6 µM [cytotoxic, single point] | –
19 | O=C(c1ccccn1)N1CCC2(CC1)NC(=O)N(Cc1ccc(F)cc1)C2=O | inconclusive: 1 µM [rising, full curve, poor fit] | –
20 | CCC(C)NC(=O)c1sc2nc(C)c(C(=O)Nc3ccc(C)cc3C)c(-c3ccccc3Cl)c2c1N (stereo not given) | inconclusive: 28.2 µM [rising, partial curve] | –

Row | SMILES | Potency | activity change, negative = cytotoxicity
21 | CC(C)=CC(=O)N1CC[C@H](NC(=O)NC(C)C)[C@H]1C(=O)N[C@H](Cc1c[nH]c2ccccc12)C(N)=O | – | inactive: 7.57%
22 | Cc1c(CN2CCN(S(C)(=O)=O)CC2)sc2c(N3CCOCC3)nc(-c3cnc(N)nc3)nc12 | inconclusive: 171 nM [cytotoxic, full curve, poor fit] and inconclusive: 336 nM [cytotoxic, full curve, poor fit] | –
23 | COCCNC(=O)c1cn2ccnc(-c3ccc(OC)cc3)c2n1 | – | inactive: -4.64%
24 | COc1ccc(-c2cc(C(=O)NCC(C)C)c3c(C4CCCN4)nn(C)c3n2)cc1 (stereo not given) | – | inactive: -11%
25 | C=CCNC(=O)[C@@H]1Cc2cn(Cc3cc(C)on3)c3cccc(c23)[C@H](CC(C)C)N1 | inconclusive: 28.2 µM [cytotoxic, single point] | –
26 | Cc1ccc(C(=O)N(CCCN)C(c2oc3cc(Cl)ccc3c(=O)c2Cc2ccccc2)C(C)C)cc1 (stereo not given) | active: 29.9 µM | –
27 | COc1ccc(Nc2ccnc(N3CCN(C(=O)Cc4cccc(Cl)c4)CC3)n2)cc1 | inconclusive: 39.8 µM [cytotoxic, single point] | –
28 | CC(=O)Nc1cccc(-c2cc3c(ccn3C)c(C(=O)NCc3cccnc3)n2)c1 | – | inactive: -10.2% [at 87.6 µM]
29 | COc1ccc(C(=O)Nc2nc3c(s2)C[C@@H]2[C@](C)(CO)[C@H](O)CC[C@@]2(C)[C@@H]3CC(=O)N(C)Cc2ccccc2)cc1 | inconclusive: 28.2 µM [cytotoxic, single point] | –
30 | COc1ccc(CNc2ccnc(-c3cccnc3)n2)c(OC)c1 | inconclusive: 39.8 µM [cytotoxic, single point] | –
31 | COc1ccc(NC(=O)[C@@H]2C[C@H](c3ccc(F)cc3)N(Cc3csc(C)n3)C2)cc1OC | – | inactive: -12.1%
32 | O=C(NC1CC1)[C@@H]1C[C@H](Oc2cccnc2)CN1 | inconclusive: 14.1 µM [cytotoxic, partial curve, poor fit] | –
33 | C/C1=C/CCC2=CC(OC2=O)C(C)(C)/C=C/C1=O (stereo not given) | active: 7.52 µM | –
34 | C[C@@H](Oc1cc(-c2cnn(C3CCNCC3)c2)cnc1N)c1c(Cl)ccc(F)c1Cl | inconclusive: 21.5 µM [cytotoxic, partial curve] and inconclusive: 21.2 µM [cytotoxic, single point] and inconclusive: 16.8 µM [cytotoxic, single point] | –
35 | NCc1ccc(OCCCc2sc(-c3ccc4c(c3)/C(=N/Nc3nc5ccccc5s3)CCC4)nc2C(=O)O)cc1 | inconclusive: 1.35 µM [cytotoxic, full curve, poor fit] | –
36 | CCn1ncc(NC(=O)Cn2ncc3cc(-c4cccc(OC)c4)ccc32)n1 | – | inactive: -21.6%
37 | Cc1ccc(C(=O)N2CCCn3cc(-c4cccc(C#N)c4)nc32)cc1 | – | inactive: 4.83%
38 | CCN(C(=O)CSc1nc2n[nH]c(C)c2c(=N)n1-c1cccc(OC)c1)c1cccc(C)c1 | inconclusive: 12.6 µM [cytotoxic, partial curve] | –
39 | CC(=O)Nc1cccc(C(=O)NCc2nnc3ccc(-c4ccccc4)nn23)c1 | – | inactive: -2.19%
40 | COC(=O)[C@@H]1Cc2c([nH]c3ccccc23)[C@H]2C[C@@H](NCCN3CCOCC3)C[C@@H](c3ccc(C(F)(F)F)cc3)N21 | inconclusive: 28.2 µM [cytotoxic, single point] | –

Row | SMILES | Potency | activity change, negative = cytotoxicity
41 | CC1CCN(C(=O)c2ccc(-c3ccc(N4CCSCC4)nc3)cc2)CC1 | inconclusive: 22.4 µM [cytotoxic, single point] | –
42 | Cc1cc(Nc2ncc(Cl)c(Nc3ccccc3S(=O)(=O)C(C)C)n2)c(OC(C)C)cc1C1CCNCC1 | inactive | –
43 | Cc1ccc(CNc2cc(C)nc3nc(-c4cccc(C)c4)nn23)cc1 | inconclusive: 22.4 µM [cytotoxic, partial curve, poor fit] | –
44 | Cn1c(=O)c(-c2cc(F)cc(F)c2)nc2cnc(Nc3ccccc3)nc21 | inconclusive: 3.98 µM [rising, single point] | –
45 | O=c1cc(-c2ccccc2)c2ccc3c(c2o1)CN(Cc1ccccc1)CO3 | inconclusive: 17.8 µM [rising, single point] | –
46 | C#CCNCc1cc2cc(OCc3ccccc3)ccc2[nH]1 | inconclusive: 21.2 µM [cytotoxic, partial curve, poor fit] | –
47 | COc1nccnc1NC1CCN(C(=O)Cc2ccccc2)CC1 | – | inactive: -4.99%
48 | CCOc1ccc(-c2oc3cc(Cl)ccc3c(=O)c2O)cc1OC | inconclusive: 1.58 µM [rising, partial curve, poor fit] | –
49 | CN(C)Cc1ccccc1-c1nc(N2CCOCC2)c2ccccc2n1 | inconclusive: 39.8 µM [cytotoxic, single point] | –
50 | O=C(Nc1ccc(F)cc1F)N1CC(c2nnc(-c3ccncc3)o2)C2(CCOCC2)C1 (stereo not given) | – | inactive: 9.85%
51 | Cc1cc(CNC(=O)c2ccc3c(c2)n(CC2CC2)c(=O)n3C2CCCCC2)on1 | inconclusive: 25.1 µM [cytotoxic, single point] | –
52 | COc1ccc(CNc2oc(/C=C/c3cccc(OC)c3)nc2C#N)cc1 | inconclusive: 22.4 µM [rising, single point] | –
53 | Cc1nc(-c2cccc(Cl)c2)n(Cc2ccc(F)c(F)c2)c(=O)c1CCO | inconclusive: 25.1 µM [cytotoxic, single point] | –
54 | CN1C(=O)CCC2(CNC(=O)CCc3c[nH]c4ccccc34)CCC=C12 (stereo not given) | inconclusive: 2.82 µM [rising, full curve, poor fit] | –
55 | Cc1noc(C)c1-c1cc2cc(C(C)C)oc2c(NC(C)C)n1 | inconclusive: 3.55 µM [rising, full curve, poor fit] | –
56 | O=C(COc1ccccc1)NC[C@H]1Cn2c(-c3ccc(Cl)cc3)cnc2CO1 | – | inactive: -17.3% [at 87.6 µM]
57 | Cc1ccc(C(=O)N[C@@H]2CN(Cc3ccncc3)C[C@H]2CN(C)C)c(C)c1 | inconclusive: 1.26 µM [rising, full curve, poor fit] | –
58 | CCN1CC2(CCN(C(=O)c3cccc(Cn4cccn4)c3)CC2)OC1=O | – | inactive: 16.4%
59 | COC(=O)[C@@H]1Cc2c([nH]c3ccccc23)[C@H]2C[C@@H](NCCO)C[C@@H](c3ccccc3F)N21 | inconclusive: 31.6 µM [cytotoxic, single point] | –
60 | CCN(CC)CCCNC(=O)CSc1nc2nc(C)c(Cc3c(F)cccc3Cl)c(C)n2n1 | inconclusive: 3.98 µM [rising, partial curve, poor fit] | –
